Reference: the supplement of paper PMC3334620
In all, about 33,000 sequences were measured (“E-score (-0.5 to 0.5)”: median about -0.017, highest 2% from about 0.3 on). This is one part of the list.

Molecular target: T1, Sut1 (UniProt P53032)
T1 sequence: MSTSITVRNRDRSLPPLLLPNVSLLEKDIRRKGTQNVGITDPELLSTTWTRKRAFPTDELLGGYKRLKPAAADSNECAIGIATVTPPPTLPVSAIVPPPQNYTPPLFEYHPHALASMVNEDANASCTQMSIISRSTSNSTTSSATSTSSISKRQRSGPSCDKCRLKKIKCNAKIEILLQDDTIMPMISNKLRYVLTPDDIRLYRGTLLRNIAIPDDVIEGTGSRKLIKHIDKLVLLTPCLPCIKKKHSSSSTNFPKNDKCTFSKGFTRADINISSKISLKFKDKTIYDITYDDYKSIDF
Assay: PBM E-score (8-mer binding enrichment) (E-score (-0.5 to 0.5)); higher = stronger / more preferred TF binding; most listed sequences are background and not binding sites
Conditions: protein concentration: 200 nM; construct: GST-full length
Summary of the method: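 Universal all-10-mer Agilent arrays, fresh or stripped once, were converted to double-stranded form by primer extension. GST-tagged yeast transcription factors from PURExpress in vitro transcription/translation, full-length or DNA-binding domain only, were applied at about 100-200 nM and detected with fluorescent anti-GST. After masliner normalisation, the Universal PBM Analysis Suite scored each ungapped eight-base word together with its reverse complement by E-score.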

Sequence	PBM E-score
GAGACTAA	0.227
GCGGGTCA	-0.0691
AGCCGTTA	0.0733
CACCCGCG	-0.0943
CGGGCAGC	0.0964
GCCGCGGA	0.106
CTAGTCAG	-0.186
GGCCCTAA	-0.0195
CGGATCCG	0.258
TATAGGGA	-0.0222
AGATGGTC	-0.12
TATTCCCA	0.139
CAGAGTCA	-0.379
AACTACGG	0.134
CGATCTTC	0.0612
CCCCGTTA	-0.0324
CAGCCCAG	-0.234
AGGAGGTC	-0.109
AACGCTCT	-0.241
CTTACAAG	0.0191
AAATTTGA	0.161
GTACTGAC	-0.0996
GCGATTCC	0.0593
ACATACCT	0.177
CCGAACCA	0.0339

Sequence	PBM E-score
TCGGAGCA	0.3
AAATGCCG	0.127
AATGATTC	0.192
CCCTCTAC	-0.299
ACCTGAGA	-0.0623
AGCCCGCA	-0.0732
ACCGCAGT	-0.0813
GAGCCCGA	-0.0297
ACCGACCC	-0.157
AACCACTG	-0.0403
AAAAGGAC	0.0899
AGCGTAGC	-0.0963
GAGATTGC	-0.0355
GCAGAGTA	-0.0113
CTCCGCCC	0.217
CCTTCGTC	-0.154
GAGTATTA	0.245
AATAGCGG	0.0301
CAAACGGC	-0.19
CCGGCATC	0.0416
AAGCTGAC	0.0494
CCTGTGAC	-0.303
ATTGAAGG	0.029
CAACACCG	0.0955
CTATAGTC	-0.077

Sequence	PBM E-score
AACCGTAT	-0.183
ATTCCTCG	-0.045
AAGAGTAA	0.0815
ACTTACAA	0.267
CGTAATCA	0.142
CCGCCCCA	-0.06
AGTGTCTA	0.0615
ACTCCCCA	-0.0539
GTGGCAAC	-0.0293
ATGGGTAA	0.106
CTTACTCC	0.365
CCCTATGC	-0.262
ACTTCGGA	0.397
AGAAAGCG	0.0146
CCTAAGGA	-0.0856
AGGCGACT	-0.145
CTGGTCAA	-0.0819
CTAGACCA	-0.0506
AAGCGGCC	-0.153
CGGCCTGA	-0.217
CCGTACCG	-0.00502
ATTTAGAA	0.198
ATATTATA	0.249
ATACACCG	0.0181
ACGGAAGA	0.147

Sequence	PBM E-score
CCGGTCTA	0.0109
AACCATTA	0.2
AGGAGCTC	-0.18
CAGGTCTA	-0.109
AGACCATC	-0.142
GAGGATGA	-0.212
CACTCCTC	-0.176
AGCTCCGG	0.466
CTACGACC	-0.00748
GACAAAGA	0.181
GGCACAAA	-0.112
CAGTGTAA	0.09
GGACCCAC	-0.0323
CACGAGCG	-0.268
CTGATACC	-0.0637
TCGCGTAA	0.173
CGGCGCTC	0.0683
GACTCATA	0.0779
AGAAATCG	0.0841
CTTCTCCC	-0.125
AGTCTCGA	-0.172
GTCCAGCA	-0.315
CGGTGCTC	0.0312
ATAATACG	0.182
CACTCACG	-0.0637

Sequence	PBM E-score
ACATACTG	0.0299
CAGGCCCG	-0.156
AACGGAAA	0.327
CTTTTGAA	0.152
CCTAATCG	0.0823
CTTGGAGA	-0.00672
CGCGAAAA	0.0171
AGTTAAGC	0.142
ACTAACAC	0.0342
AAGTCTCA	-0.113
AACGCATC	-0.159
CTAATGAA	0.135
AAAGATAG	0.139
GGCTTCAA	-0.181
CCGTAGTA	0.123
GCTGAACA	0.0731
ATACTGAT	0.222
CCTCGAAG	0.0696
AGGTTATA	-0.0188
ATAAAGTC	0.17
AGAAGGCT	-0.0632
GGGAGTGA	-0.0284
CTAACCAA	0.0907
TACGGTAA	0.228
CAGCGCTA	-0.163

Sequence	PBM E-score
CCTGACCC	-0.195
CAGCCGGC	-0.0969
CAGGGTAC	-0.303
AACCCGAT	-0.0428
GCGCGCGC	0.203
GGCCCTAC	-0.17
GACCCCTC	-0.262
GACCACAC	-0.00407
CCTGAAAG	-0.205
GATTGGTA	0.171
AGGCAACG	-0.0843
CCTTCTCA	-0.0302
CTTTGTGA	-0.0025
AAAGAGTA	0.0101
ACCCGGCC	-0.267
CGGAAGTC	0.179
AGCTTTGA	0.0933
AATATATT	0.31
CTTGAACC	0.0226
GACAGCCA	-0.131
TCACAGAA	0.0733
ACATCACC	0.0273
CCATAAAA	0.128
ACAATATG	0.115
CACTTACG	0.0375

Sequence	PBM E-score
AACGCCTG	-0.16
CGCTGAAC	-0.0166
GCCAGTGA	-0.153
ATCCCTTC	0.0587
ACTCTCCA	0.0307
AACGACGC	0.139
CAACCCGC	-0.0679
CGCCCAAA	-0.0114
AGTCGCAC	-0.167
AATTCTTG	0.155
CGATTCCC	-0.0189
AGTGAGTG	0.0493
CTATACTC	-0.0209
AGCCGCCC	-0.165
CTCGCGGC	-0.147
CCGAACAG	0.143
CGTGTAGC	-0.26
GATGAATC	0.101
ACTCTAAC	0.127
ACAAAATA	0.254
ATTGTAGC	-0.0178
CATATCAC	0.0564
ATCTATCC	0.244
AGGTATCA	0.0326
CCTAGTTA	0.148

Sequence	PBM E-score
CATCGTAG	-0.282
CCCACTCA	0.0163
GGACCAAA	-0.0301
GGCCATAC	-0.0824
ACGAGTCC	0.0395
ACGCTTAC	-0.0439
AGGAACAA	-0.0298
ACTAAGAA	0.157
AGTTCGGC	0.126
TATGAGGA	-0.0297
TACATTGA	0.0782
ACGTTACG	-0.0887
TATCCCAA	-0.0712
AGACTTAG	-0.225
GTAACCCA	0.163
ACGACACG	0.0774
ACCAACGA	-0.0955
GTCACCAC	-0.12
GCACAAGA	0.00621
TCCCGAGA	-0.0188
CAAGGTCC	0.13
AGCTTTCG	-0.185
CAAGCCTA	-0.0329
CTTTGGAC	0.0214
ATTCTCGG	0.28

Sequence	PBM E-score
CACTAGCG	-0.128
CCAGGGTA	-0.203
GCGGGCTA	-0.126
ACGAGCAT	-0.082
CCGTACTA	0.297
GATTACTA	0.166
AAACCCCG	0.441
TCGACGCA	-0.121
CTGTCATC	-0.155
CATTAAGC	-0.0114
GTATATAC	0.316
ACCTTTAA	0.13
AAATGAGG	-0.0395
GCCTCGCC	-0.339
ATGTCGAC	0.0925
CTCGTCCA	-0.0495
AAGATCGA	0.0882
GTCATGAA	-0.0184
AATGTGAT	0.0868
